This is one part of the list.
These sequences were tested against T1, OsWOX13 (Oryza sativa, UniProt Q5QMM3 1-267) (assay: protein-binding microarray (RPBM); PBS, 2% BSA, 51.3 ng/ul salmon testes DNA, 50 uM zinc acetate, 200 nM TF, 25 C, 1 h; high values mean tight binding). Conditions: protein: recombinant; tags: N-terminal polyhistidine and DsRed monomer fusion (pET32a); label: CyDye5-dUTP incorporated in the synthesized complementary strand; 3' TTTTT single-stranded linker to array surface; dsDNA, one strand shown.
T1 sequence: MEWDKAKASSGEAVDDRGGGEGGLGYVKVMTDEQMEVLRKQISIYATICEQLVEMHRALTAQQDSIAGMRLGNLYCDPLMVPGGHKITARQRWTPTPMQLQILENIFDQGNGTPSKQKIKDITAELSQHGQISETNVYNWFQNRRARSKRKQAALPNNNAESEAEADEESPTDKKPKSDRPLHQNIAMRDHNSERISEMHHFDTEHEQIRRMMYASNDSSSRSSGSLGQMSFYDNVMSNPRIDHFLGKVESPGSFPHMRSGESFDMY
Procedure, shortened: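 The binding signal is fluorescence intensity per array feature (arbitrary units). Readings came from an Axon 4000B scanner after a washed, 2% BSA-blocked, double-stranded custom Agilent array had been incubated for 1 h at 25 °C with 200 nM protein and 50 µM zinc acetate. The protein was a Ni–NTA-purified transcription factor fused N-terminally to polyhistidine and DsRed, expressed in E. coli BL21-CodonPlus.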

In order of falling binding signal:
1. AGCTCTGATTGAATTAGCTAATTATGGTTGCACGTCTAAGCGGAGTCACCTAGTGCAG  59600 fluorescence intensity (a.u.)
2. CATTTGCTGGATGTGCTCCTTACTTAATATTTATGCATGGCGGAGTCACCTAGTGCAG  52600 fluorescence intensity (a.u.)
3. TCTGATTGCTGTTAGTTGTTGATGAGATGGAGATGGAGATCGGAGTCACCTAGTGCAG  39900 fluorescence intensity (a.u.)
4. ATCCAATTAATTTATCTAGCATTTTGGATTTACCACCTCACGGAGTCACCTAGTGCAG  38100 fluorescence intensity (a.u.)
5. TAACTGATTAATTTATTTTGGTGATTTATTGTAATTAAGACGGAGTCACCTAGTGCAG  37600 fluorescence intensity (a.u.)
6. GGATTAATTTGTGATACGATCGGGTGAAAATATGGTTGTTCGGAGTCACCTAGTGCAG  36400 fluorescence intensity (a.u.)
7. TTGAAAGCAGCAGTGATTGCTAGTATGATTTCCTGGACATCGGAGTCACCTAGTGCAG  28100 fluorescence intensity (a.u.)
8. AATAATTATATTGTGAGTGAGCTTAAATAAGAAACTATGTCGGAGTCACCTAGTGCAG  27600 fluorescence intensity (a.u.)
9. GTAATTAATTAACATTGCAATTAAGCACATAAGTTAATCACGGAGTCACCTAGTGCAG  27000 fluorescence intensity (a.u.)
10. CTTGCAAATCAATCAGTCTTTCTCTCTCCGATTCTCTGTACGGAGTCACCTAGTGCAG  24000 fluorescence intensity (a.u.)
11. TAAACAGGTAATTATCCAAGAGCCAAATTAACCAAGACAGCGGAGTCACCTAGTGCAG  23700 fluorescence intensity (a.u.)
12. CCGCTGAATCATCGTCAATCATCATCAGACACACTAGTGACGGAGTCACCTAGTGCAG  22000 fluorescence intensity (a.u.)
13. GAGTTTTAATTATTATAAACTTAAAATATATATATTTGATCGGAGTCACCTAGTGCAG  20500 fluorescence intensity (a.u.)
14. TTTACTTATCAATCATGGCTCAAACAATTAGTTTAAGATGCGGAGTCACCTAGTGCAG  19800 fluorescence intensity (a.u.)
15. ATTAATTTTCTTTGTTATCCATCAAACAAACCGTGATCGGCGGAGTCACCTAGTGCAG  17800 fluorescence intensity (a.u.)
16. ATGAAAGATTGATATGTTGACATGTTCACAGATGAACTTACGGAGTCACCTAGTGCAG  17200 fluorescence intensity (a.u.)
17. TAATTTTAGATTGCTATTATATTATTTTAGACATGTAGATCGGAGTCACCTAGTGCAG  16400 fluorescence intensity (a.u.)
18. CACAGATAATATAAATTGAGACACCGAAATCAAGAACTCGCGGAGTCACCTAGTGCAG  15300 fluorescence intensity (a.u.)
19. TGTGCTCAGCCTTAATTAATTAATCGAGCGAGTCATAAGCCGGAGTCACCTAGTGCAG  13000 fluorescence intensity (a.u.)
20. CTTAATGTTAATCACACCGCTTAACCAAATGTCTTCTACACGGAGTCACCTAGTGCAG  11600 fluorescence intensity (a.u.)
21. CTATAGTATAATTACATTGTAATTTTAGTTTTCTAACACTCGGAGTCACCTAGTGCAG  11500 fluorescence intensity (a.u.)
22. CCAAGAAATGATTTTAACTGCAGATACAGTCTTCTTCCTGCGGAGTCACCTAGTGCAG  9560 fluorescence intensity (a.u.)
23. AAGATAAATTAATATGTAATATATCACTTCATAAATATACCGGAGTCACCTAGTGCAG  9450 fluorescence intensity (a.u.)
24. TGTAACCAATTAACTAGTCCGTATCTGCAAACACACAGCGCGGAGTCACCTAGTGCAG  9410 fluorescence intensity (a.u.)
25. TACGCTATACGCAGTAATTGATATATATAATCTTCATGGTCGGAGTCACCTAGTGCAG  8920 fluorescence intensity (a.u.)
26. TACATTTAATTTGTTATGTGTTAAAATAGGTATAAGTTAGCGGAGTCACCTAGTGCAG  8430 fluorescence intensity (a.u.)
27. GAAAATTCAAATTTTAGCTAATTAATAAGCATATGTATAACGGAGTCACCTAGTGCAG  8390 fluorescence intensity (a.u.)
28. GGAAATTACCGTCTCACTGACAAGCAGCTTTGCGCCCACCCGGAGTCACCTAGTGCAG  7820 fluorescence intensity (a.u.)
29. CGGTAGATTAGATAGATCATAGATCAAGGGAGCTAGCTAGCGGAGTCACCTAGTGCAG  7750 fluorescence intensity (a.u.)
30. ACTCAGATTAATATTTCACAATTTGCAGATGTTCTTCATCCGGAGTCACCTAGTGCAG  5960 fluorescence intensity (a.u.)
31. ATGAGATTGCTTTTGTGTAGAGCACTCTATGTAATTTAACCGGAGTCACCTAGTGCAG  5800 fluorescence intensity (a.u.)
32. ACTCATCAACAGTAGAAATTTAATTGAATTGCCATATGGTCGGAGTCACCTAGTGCAG  5530 fluorescence intensity (a.u.)
33. TCTTCTAAATTTATACTCTTGTTGAGTACTACATGTTTGTCGGAGTCACCTAGTGCAG  5210 fluorescence intensity (a.u.)
34. GGAGATACGGCGAGGGGAGGGGACGGAGGGGCGGGGTGCGCGGAGTCACCTAGTGCAG  5050 fluorescence intensity (a.u.)
35. AGGGACCAATAAATATAATTTATGAGTAATGACAAGGCTTCGGAGTCACCTAGTGCAG  4920 fluorescence intensity (a.u.)
36. TATTTTAAATTATAATATGTATAAAATTGTTAGCAAAACGCGGAGTCACCTAGTGCAG  4730 fluorescence intensity (a.u.)
37. ATGACATAGTTAAATTTGAAAATAATGCAACTTAATACTTCGGAGTCACCTAGTGCAG  4360 fluorescence intensity (a.u.)
38. CTGGATTTGCTGTTTTGTTAATCATAGATAAAGCAGTACACGGAGTCACCTAGTGCAG  4200 fluorescence intensity (a.u.)
39. CATCGATCGAGCTGATTGCTGCTTCGCGTACGCGCCTAGACGGAGTCACCTAGTGCAG  3490 fluorescence intensity (a.u.)
40. GACATCCTCTAATTTGGGAAAACATCGATTTTATTTTCTTCGGAGTCACCTAGTGCAG  3420 fluorescence intensity (a.u.)
41. AAATAAACAAATCAAGAACATTCTACAAAAGACAGTCCATCGGAGTCACCTAGTGCAG  3230 fluorescence intensity (a.u.)
42. AATCATGGATTAATTAGTCTCAAAAGATCCGTATCGCGATCGGAGTCACCTAGTGCAG  3180 fluorescence intensity (a.u.)

From PMC7819943, “Rice protein-binding microarrays: a tool to detect cis-acting elements near promoter regions in rice”
